# Screen size: about 45,000 compounds; about 200 (0.44%) were called active. Roughly 7% stayed inconclusive and do not appear here. Calls come from the whole dose curve; as a rule, active = well fitted activation curve with a large enough effect; inconclusive = small, poorly fitted or top-dose-only effect; inactive = no such curve, though single readings can be large or run the other way. The list shows a part of the results.
# Test: qHTS of TDP-43 Inhibitors: NCGC Sytravon Library Screen; note: 0% is about no effect; nearly all actives have a fitted effect of over 55% in size
# Details: yeast TDP-43 toxicity rescue, BacTiter-Glo growth, 24 h; series mostly up to 46.1 µM; growth rescue (activation): at the top concentration
# In short: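 TDP-43-expressing yeast, pregrown in raffinose, seeded at OD600 0.02 in galactose medium with compound for 24 hr at 30 deg C. Growth read by BacTiter-Glo luminescence, so rescue of toxicity appears as activation.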
row,SMILES,growth rescue (activation)
1,O=C(CSCc1ccccc1)Nc1ccc(S(=O)(=O)Nc2ncccn2)cc1,inactive: -8.78%
2,CCOc1cc(/C=C/C(=O)OCC(=O)NCC2CCCO2)cc(Cl)c1OC (stereo not drawn),inactive: -9.38%
3,O=S(=O)(c1ccc(Br)cc1)N1CCC(c2nc3ccccc3[nH]2)CC1,inactive: 3.97%
4,CN(CC(=O)Nc1ccc(Cl)c(S(=O)(=O)N(C)C)c1)Cc1ccccc1,inactive: -3.43%
5,Nc1nc(CSc2nc3ccccc3[nH]2)nc(N2CCOCC2)n1,inactive: 4.01%
6,Cc1[nH]c2ccccc2c1/C=N/NC(=S)NCc1ccccc1,inactive: 24.2%
7,CCC(Sc1ccc2nnc(CCNS(=O)(=O)c3ccc(OC)cc3)n2n1)C(=O)OC (stereo not drawn),inactive: 4.02%
8,COc1ccc(CNC(=O)CCCSc2ccccc2)cc1,inactive: 30.2%
9,Cc1nc2ccc(S(=O)(=O)NCC(=O)Nc3ccc(C)c(Cl)c3)cc2s1,inactive: 23.2%
10,CN(C)CCCO/N=C(\c1ccccc1)c1ccncc1,inactive: -1.2%
11,CN(C)c1cccc(C(=O)OCC(=O)Nc2nccs2)c1,inactive: 23.8%
12,CCc1nc2ccc(C(=O)NCCOc3ccc(OC)cc3)cn2c1N(CC)Cc1cccc(Br)c1,inactive: 2.67%
13,CCc1nnc(SCC(=O)Nc2ccc(N3CCN(S(C)(=O)=O)CC3)cc2)o1,inactive: -7.85%
14,O=C(NCCc1cccc(F)c1)C1CCCN(c2nc3ccccc3s2)C1 (stereo not drawn),inactive: -6.93%
15,COc1ccc(/C=N/N(C)c2cc(=O)n(C)c(=O)[nH]2)cc1OC,inactive: -4.45%
16,O=C(N/N=C/c1sc(=O)[nH]c1-[n+]1ccccc1)c1ccccc1[O-],inactive: 9.2%
17,COc1cc2c(cc1OC)CN(C(=O)c1ccc(OC)c(S(=O)(=O)N3CCCC3)c1)CC2,inactive: -35.2%
18,O=C(CNC(=O)C1CCCCC1)NNC(=O)c1ccccc1Br,inactive: -6.49%
19,CCOC(=O)C1CCN(C(=O)c2cc3cc(F)ccc3[nH]2)CC1,inactive: 17.9%
20,Cc1ccc(SCCC(=O)N/N=C/c2ccccc2O)cc1,inactive: 20.6%
21,COc1cccc(/C=C2\C=C(c3ccc(C)cc3)OC2=O)c1OC(C)=O,inactive: -29.2%
22,CCOC(=O)N1CCN(Cc2cn[nH]c2-c2ccc(-c3ccccc3)cc2)CC1,inactive: -0.71%
23,O=C(NCC1CCCO1)C1CC(=O)N(c2ccccc2)C1 (stereo not drawn),inactive: -1.62%

row,SMILES,growth rescue (activation)
1,COC(=O)c1c(C)[nH]c(C(=O)COC(=O)Cn2cc(C(F)(F)F)ccc2=O)c1C,inactive: 7.46%
2,O=c1[nH]c(O)c(N=Nc2ccc(Cl)c(S(=O)(=O)Nc3ccccc3Cl)c2)c(=O)[nH]1,inactive: 18.5%
3,COCCCNC(=S)N1CCN(S(C)(=O)=O)CC1,inactive: -17.5%
4,COc1cccc(NC(=S)N(Cc2ccco2)C(C)c2ccco2)c1 (stereo not drawn),inactive: 7.25%
5,CC(C)(C)NC(=O)COC(=O)c1ccc(NC(=O)CC#N)cc1,inactive: -9.52%
6,Cn1c(CN2CCN(S(C)(=O)=O)CC2)nc2cc([N+](=O)[O-])ccc21,inactive: -17.8%
7,CCCCOc1ccc(C(C)NC(=O)CCS(=O)(=O)Cc2ccc(Cl)cc2)cc1 (stereo not drawn),inactive: -1.88%
8,CC1(C(=O)O)CC(C)(C(=O)O)CC(C)(C(=O)O)C1 (stereo not drawn),inactive: 11.8%
9,COc1ccc(OCC(=O)N2CCN(S(=O)(=O)c3ccccc3[N+](=O)[O-])CC2)cc1,inactive: 4.69%
10,O=C(c1ccc(-n2cncn2)c2ccoc12)N1CCOCC1,inactive: 1.22%
11,Cc1ccc2c(c1)N(CC(=O)NCCCN1CCCC1)C(=O)CO2,inactive: 4.81%
12,COCCNC(=O)c1cc2c(s1)-c1ccc(Cl)cc1SC2,inactive: 31.1%
13,COc1cccc(C(=O)Nc2ccc(C(=O)c3ccncc3)cc2)c1,inactive: 6.2%
14,Oc1c(Cl)cc(Cl)c2c1NCCC2,inactive: 1.98%
15,CCNC(=O)C1(C)CCN(C(=O)c2ccc(C(F)(F)F)cc2)C1 (stereo not drawn),inactive: 2.84%
16,CCc1ccccc1NC(=O)CSc1nc2[nH]c(=O)cc(O)c2s1,inactive: -7.99%
17,COc1cccc(-n2nnnc2SCC(=O)Nc2ccc(NC(C)=O)cc2)c1,inactive: -9.32%
18,CC(C(=O)N(C)Cc1cccc(F)c1)N1CCN(S(=O)(=O)c2ccc3c(c2)OCCCO3)CC1 (stereo not drawn),inactive: 18.6%
19,CC(=O)Nc1ccc(NC(=O)CN(c2cccc(C(C)=O)c2)S(C)(=O)=O)cc1,inactive: -2.76%
20,C/C(=N\OCC(=O)NC12CC3CC(CC(C3)C1)C2)c1cc2ccccc2o1,inactive: 35.5%
21,O=C(CSc1nc2c(c(=O)[nH]1)CCC2)Nc1ccc(F)cc1,inactive: 14%
22,CC(=O)N1CCN(CC(=O)Nc2ccccc2Sc2ccccc2)CC1,inactive: -22.4%
23,O=[N+]([O-])c1ccc2nc(NS(=O)(=O)c3ccc(Cl)cc3)sc2c1,inactive: -1.79%

row,SMILES,growth rescue (activation)
1,CCCN(Cc1nnc(-c2ccccc2Cl)o1)C(=O)c1cc([N+](=O)[O-])cc([N+](=O)[O-])c1,inactive: -4.79%
2,Cc1ccc(C(=O)OCC(=O)NCc2ccc3c(c2)OCO3)o1,inactive: 3.94%
3,COCCNC(=S)N/N=C(\C)c1cccc(C(F)(F)F)c1,inactive: -5.57%
4,O=C(/C(Br)=C/Nc1cc(Cl)ccc1Cl)C(F)(F)F,inactive: 8.62%
5,CC(=O)Nc1ccc(NC(=O)C(C)OC(=O)C2CCN(S(=O)(=O)c3cccs3)CC2)cc1 (stereo not drawn),inactive: 38%
6,O=C(c1ccco1)N1CCC(c2nc3c(nnn3Cc3ccccc3Cl)c(=O)[nH]2)CC1,inactive: 16.3%
7,CCc1nc2c(OCc3cc(Cl)cc(Cl)c3)cccn2c1N(C)C(=O)CC(C)C,inactive: -25.2%
8,CCCCS(=O)(=O)NC1=NCN(CCOC(=O)c2ccccc2)CN1,inactive: 15%
9,COCCSc1nnc(NC(=O)C2CC(=O)N(C3CCCC3)C2)s1 (stereo not drawn),inactive: 11.4%
10,CCN(Cc1ccncc1)Cc1nc(-c2ccc(C(=O)OC)cc2)no1,inactive: 22.6%
11,CCn1nc(C)c(CN2CCN(Cc3ccc(OC)c(C)c3C)C(CCO)C2)c1C (stereo not drawn),inactive: 8.22%
12,CCc1nc2c(OCCOC)cccn2c1N(C)C(=O)Nc1ccccc1OC,inactive: 19.7%
13,COCCOC(=O)c1c(C)oc2ccc(NS(=O)(=O)c3cccs3)cc12,inactive: 19.3%
14,CC(C)NC(=S)N/N=C/c1ccc2c(c1)OCCO2,inactive: 11.4%
15,Cc1nc(SCc2ccccc2)c2oc3ccccc3c2n1,inactive: -2.31%
16,Cc1cccc(NC(=S)N2CCN(c3ccccc3)CC2)c1,inactive: -10.1%
17,CC1=NN2C(=N)/C(=C\c3cc(C)n(Cc4ccccc4)c3C)C(=O)N=C2S1,inactive: -4.23%
18,Cc1ccc(C)c(NC(=O)N2CCc3cc(S(=O)(=O)N4CCC(C)CC4)ccc32)c1,inactive: -3.64%
19,COc1cc(/C=N/NC(=O)CCC(=O)NC2CCCCC2)ccc1C,inactive: 9.3%
20,Cc1ccsc1CN(C(=O)c1ccc(Br)cc1)C1CCS(=O)(=O)C1 (stereo not drawn),inactive: 13.9%
21,O=C(/C=C/c1cccs1)N1CCOCC1,inactive: -10.2%
22,O=C(Nc1cccc(-c2nc3ccccc3[nH]2)c1)c1ccccc1F,inactive: -8.64%
